# Data reported in the RNAGym collection of RNA variant scans (doi:10.7554/elife.90254).
# Read counts are not given, so values of variants with three or more changes are uncertain.
# B1: LINE1-full (parent)
# chain: UACGUAGGUGGUUUUCCCCUGAUAGUGCUAAGGGGGCCUGGAAGUUUGGACUGGGCAGAGCUCAACACAGCGUGGCAAAGUGGCUGUGGCUAGACUGCCUCUCUGGAUUCCUCGUCACUCAGCAGGGCAUCUCUGAGAGAAAUGCC
# Variants of: B1
# Test: self-cleavage, relative activity (ratio to wild type); higher = more cleavage; in vitro, sequencing; the parent is a self-cleaving ribozyme
row,Variant,self-cleavage
1,A22G A24U G86A U87G,0
2,U13C A57U A78G U108C A140G,0.23
3,U13C A79U U104C U109C,1.41
4,A50U U115C C118A U143A,1.6
5,A2G G8A U9A G34A G86U A138G,0.16
6,G8U U132C A140G,1.69
7,G60U G70C U112A A121G C133A,0.03
8,A30G U104A U115A,0.4
9,G21A A59U A67U,0.06
10,A6U A31G A64U C68U U132A,0.2
11,A24G A42U A57G A138G,1.11
12,C3U A31G G74A U132C U143A,1.08
13,A77G A121G A140G,1.78
14,U47C U102A U134C A138G,0.92
15,A24C U52C A64G U143C,0.71
16,U73C A79G A136G U143A,2.09
17,A65U A69G U109C,0.09
18,U14C U39C U45A U143C,1.58
19,U45C U112A A121G,2.96
20,C16U U46C U47C U130C,0.31
21,U13C A107G A136G,1.53
22,A43G U62C U132A,0
23,U39C U108C U134C,0.99
24,G49U A69G A78G U81A,0.06

row,Variant,self-cleavage
1,U81C A94G G97A A136G,0.07
2,U23A A78G C113A,0.73
3,U47C A50G U73C A142G,1.15
4,U12C U20A U130C U132A,0.62
5,G48A U96A U130A,0.06
6,U29A A64G A67G C76U A94G,0.06
7,U12G U45C A77G,0.92
8,U39A U81C U108G A138U,0.22
9,U5C A6G A107G,2.12
10,U13A U14A A59C U102A,0.72
11,U62C A65G U119A,0
12,U14C A69G G74A U102C,0.75
13,U100A U115C A141G,1.61
14,U5G U52A A77G C90U U112C,0.1
15,A107C A136G U143A,0.71
16,G33A A57G C113A,0.51
17,U5C U13C G35U,0.73
18,U39A U102C A121G,0.84
19,U20A C28U A77G,1.43
20,G33A G86C A129G,0.04
21,G32A U104G A141G,1.15
22,C66U U96C A129G,0.06
23,G74A G82A A124U,1.99
24,U12G U52C A65U,0.5

row,Variant,self-cleavage
1,G27A A31U A42G A64G A107G,0
2,G7A C38A A136G,1.01
3,U39C A43G U47C A138U A140G,1.84
4,A67G U112A A140G,1.26
5,A22G U46C A50G U73A A77U,1.06
6,G4U U14A C128U,0.75
7,U85C U109A A136G,0
8,A6G G74A U85C,0.37
9,U81A A124U A141G,2.51
10,U5C U12C U13C A107G A138G,0.8
11,G4A A43G U62C,0.1
12,U13A U23A A94G U109C C116U,0.15
13,A30G U81G U115C,1.84
14,U15C U20C A43U A59G,0.15
15,U13C A42U U73C A94U,0.88
16,C17U U20A U132A,0.9
17,U47C U85C U143A,0.22
18,U52C G70U U108C,0.1
19,U14C U85A U112A,0.08
20,A69U U112C U115A,0.08
21,A42G U102C A140G,1.39
22,U15C A50G A69U C99U,0.02
23,A57G U62C U119A A121U,0.02
24,G4A U81G U87C U96A U102A A136U,0.32

row,Variant,self-cleavage
1,A22U U26G G27A G41A,0.85
2,G21A U87C G89A U102C A121U,0.05
3,U12G U47A A77G C84U U96C A129G,0.53
4,U14C A43G G105A U115A,1.16
5,U13C U45A A65G,0
6,U12C U46A A59U U100C U108C,1.16
7,G10U U15G A67G A138U A142G,0.34
8,G25A A124U A140G,0.53
9,U14C U26C U62A U73C,0.09
10,U9C U100C A138G,1.75
11,G32A U47C U62A U85C U87A A94G U130C,0
12,U47C U115C A136U,1.43
13,U13C U62C A69C A136G A141G,0
14,U26C A50G A79G,0
15,G4A U112C A124U,1.22
16,A6U U20C U46C,1.76
17,U14C A22G A67G G75U,0.24
18,U39A U47A U91C A141G,0.15
19,U9C U12C U23C A43G,0
20,A65C A79G U108C U134C,0
21,U52C U62C A78U U102C,0.09
22,U39A A92U A117U G126A,0.81
23,U39A A121U A136G U143C,1.7
24,A57G G75C A121G,0.59

row,Variant,self-cleavage
1,U102C A124U A129G,1.76
2,C61U A138G A141G,0.05
3,U112A A124G U143C,2.52
4,U14C U81C C118U,1.9
5,U102A A107G A142G U143C,0.56
6,G4A C61U U104A,0.2
7,U1C A22G U91C G106U,0.72
8,U102A U119A A140G,1.58
9,A2G U9A A94G,1.19
10,A69U A140G U143C,0.07
11,U100C U112C A140G,2.33
12,U47C U73G C131U,1.74
13,A2G U26G U112A A121G U134A,0.42
14,U14C C128G U134C,1.08
15,U26C A59U A65C A77G G114U,0.05
16,A2G U87A U100A,0.07
17,U12C U45C U47A A94G U132C,0
18,U12G A30G G54A U112A,0.74
19,U23C A24G G55C U96A A141G,0.12
20,G48A A69G A78G U96C,0
21,A67G U81G A129G U143G,0.37
22,U12C U13C A94G U96G,0
23,U14C U62C U108C,0.13
24,A2U A65U G105A,0.06

row,Variant,self-cleavage
1,U12G A78G U115C U119A,2.7
2,U39A A57U A64U,0.08
3,U47A U52C C131U A141G,0.82
4,U20A U62A U143C,0.09
5,U12C A121U A141G U143G,1.82
6,C37G G82A A94U,0.22
7,G25A U47C U115C,2.83
8,G10U G70A U87C,0.03
9,U39C U81A A136U,0.52
10,U12C U13C A50G,1.5
11,A24G A43C C111U A117G U132C,1.84
12,U9C A22G U26A C98U,0.31
13,G41U A69G A79U U100A U130C U132C,0.36
14,A69U A94U C110U A136U,0.01
15,U81A A94G U102A U108C U143A,0
16,U15A A30G A77G A124U,1.72
17,U14A G36U A64G U109A A141G,0.08
18,U9C U12C C131U,0.42
19,A6G A57C U85C,0
20,U109A A124G A136G A138G,2.04
21,G41C A59G A77G U81A U130C,0
22,G54A U96C U102A A124G,0.04
23,U73A A140G A142G,1
24,U9A A30G A77U,0.59

row,Variant,self-cleavage
1,U15C U47C G54A A64U U87C,0.12
2,A30U U39A A136G,1.63
3,U9A C19U U39C U132C,1.06
4,U47A G139A A140G,1.74
5,A2C U39C U45C,1.13
6,G7U G32U U45A A141G,1.01
7,U13C A59G U102A U119A,0
8,A64G A136G A142G,0.37
9,U14C A57U U73G,0.22
10,U26C C66A U96A A124G,0.02
11,A2U U104A C113U,0.53
12,U9C U62C A142G,0.13
13,U26A A42G U47C A124G A138U,0.71
14,A2G U14C C71G A121G,0.57
15,A50G A64U A117U,0.51
16,U15C U23C U29C A138U,0.9
17,U45C U46A A77G U119C G122C,2.87
18,U12C U15C U62C U87A U108A,0
19,A24G U29A U100C A121G A141G,1.31
20,U12G A43G U132C,0
21,U13C C19U U115C A140U,1.11
22,U20C U26C U104C U143A,2.19
23,A65G A78G U100A A140G,0
